# Test results reported in PubChem BioAssay AID434955 (Southern Research Specialized Biocontainment Screening …, 2010).
# The list shows a part of the results. Further columns of the screen follow, without active or inactive calls. Most of these compounds were active or inconclusive in the main read-out, so they are no random draw.
# Experiment: beta-lactam sensitization of Mtb H37Rv, H37Rv (AID 434955);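 further: growth measured after seven days incubation then overnight dye step; 0% = bacteria only wells and 100% = bacteria with antibiotic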
# Settings: M. tuberculosis H37Rv growth with meropenem, percent inhibition; measured here: primary screen without meropenem; at 25 µM
row,Structure (SMILES),inhibition [%]
1,Cc1cccn2c(=O)c3c(nc12)N1CCc2ccccc2C1C1(C3)C(=O)NC(=O)N(C)C1=O (stereo unspecified),10.1
2,Cc1cccc(C)c1NC(=O)C1CC2CCC1C2 (stereo unspecified),14.5
3,Cc1ccc(/C=N/n2c(COc3ccccc3)n[nH]c2=S)cc1,6.13
4,COC(=O)c1ccc(Cn2nc(-c3ccccc3)ccc2=O)cc1,2.25
5,Cc1ccc(C(=O)COC(=O)CNS(=O)(=O)c2ccc(C)cc2)cc1,-1.19
6,Cc1ccccc1Nc1nc(N)nc(COC(=O)c2cccc(S(=O)(=O)N(C)C)c2)n1,-3.15
7,CCOC(=O)c1sc(Nc2nc3c(OC)cccc3s2)cc1C,48.9
8,CCN(CC)c1ccc2cc(-c3nc4ccccc4n3C)c(=O)oc2c1,80.1
9,Cc1[nH]n(-c2ccccc2)c(=O)c1S(=O)(=O)c1ccccc1,6.77
10,COc1ccc(OC)c(N(CC(=O)NC2CCCC2)S(=O)(=O)c2ccc(OC)c(OC)c2)c1,8.58
11,COc1cc(C(=O)Oc2cccnc2)cc(OC)c1OC,17.3
12,O=C(c1ccco1)n1nc(-c2ccccc2)nc1NCc1ccco1,1.72
13,COc1cccc2c1OC1(C)CC2/C(=C(\C)O)C(=O)N1 (stereo unspecified),3.87
14,CCCCn1c(N)c(N(CCC(C)C)C(=O)CCCc2nc3ccccc3s2)c(=O)[nH]c1=O,2.15
15,Cc1ccc(NC(=O)CS(=O)CC(=O)Nc2cccc(C)c2C)cc1F (stereo unspecified),-10.4
16,Cc1cc(NC(=O)c2cccc(S(=O)(=O)N3CCC(C)CC3)c2)no1,-2
17,COc1cccc(S(=O)(=O)Nc2cccnc2)c1,-3.73
18,O=C(CCn1c(=O)oc2ccccc21)N1CCN(c2ccccc2F)CC1,-5.79
19,CCn1nc(NC(=O)CC(C)C)c2cc3cccc(C)c3nc21,1.41
20,COc1ccc(-c2noc(CSc3nc4ccccc4c(=O)n3-c3ccccc3)n2)cc1,-0.62
21,O=C(CSc1nnc(CNC(=O)c2ccccc2)o1)NCc1ccccc1,-1.83
22,Cc1ccc(S(=O)(=O)N2CCC(N3CCC(C)CC3)CC2)cc1,-1.46

row,Structure (SMILES),inhibition [%]
1,CC(C)c1nc2cc(C(=O)N(C)C3CCOCC3)ccc2o1,4.09
2,CC(=O)Nc1nonc1NC(=O)CSc1ncn[nH]1,-9.49
3,CCCC(=O)N(CCN1CCOCC1)c1nc2c(OC)ccc(C)c2s1,1.9
4,COc1ccc(CN2CCN(C(=O)Cn3ncn4cccc4c3=O)CC2)c(OC)c1OC,-7.18
5,COC(=O)CCC(=O)NNC(=O)c1cccc(Cl)c1,-1.68
6,O=C(NCCCNC(=O)NC1CCCCC1)NC1CCCCC1,-5.15
7,COc1ccc(-c2cc3c(=O)n(CC(=O)NCCCN4CCC(Cc5ccccc5)CC4)ncn3n2)cc1,90.3
8,CCc1c(C)nc(SCc2cccnc2)[nH]c1=O,1.43
9,COc1ccc(C)cc1NC(=O)c1nnn(Cc2cccc(F)c2)c1N,-9.93
10,O=C(c1ccccc1)N1CCC(CC2CC(c3cccc(Br)c3)=NO2)(C(=O)NCC2CCCCC2)CC1 (stereo unspecified),16.1
11,CN(C)c1ccc(/C=C/c2nc3ccccc3s2)cc1,42.9
12,Cc1cccc(NS(=O)(=O)c2cc3c(cc2C)n(C)c(=O)c(=O)n3C)c1,-6.75
13,COc1ccc(OC)c(-c2cc(C(=O)Nc3c(C)n(C)n(-c4ccccc4)c3=O)no2)c1,18.7
14,CCn1c(CNc2ccccc2Cl)nnc1SCCN1CCCCC1,-1.58
15,O=C(O)CSc1ncnc2c1sc1nc(-c3ccccc3)c3c(c12)CCC3,-1.37
16,CN(C)CCCNc1oc(-c2ccccc2Cl)nc1S(=O)(=O)c1ccc(F)cc1,-1.96
17,CCCN1CCN(C(=O)c2cc3c(s2)-c2ccccc2OC3)CC1,2.21
18,CCC(CC)Nc1ccc(C(CC(N)=O)NC(=O)c2ccccc2)cc1[N+](=O)[O-] (stereo unspecified),27.1
19,Cn1c(SCC(=O)c2ccccc2)nnc1-c1cnccn1,1.54
20,CCN(CC)c1ccc(N=Cc2c(O)n(-c3ccc(Cl)cc3)c(=O)[nH]c2=O)cc1,4.12
21,S=C(NCCc1ccccc1)Nc1ccc(N2CCCCC2)cc1,2.7
22,COC(=O)c1c(NC(=O)COc2ccc(Cl)cc2)sc2c1CC(C)(C)NC2(C)C,100

row,Structure (SMILES),inhibition [%]
1,O=[N+]([O-])c1ccc(-c2nnc3n2CCCCC3)cc1,-8.52
2,COc1cc(C(=O)NCCC(=O)NCCCN2CCCCC2)cc(OC)c1OC,-0.97
3,Cc1nnc(SCc2ccc(C(=O)Nc3cc(Cl)ccc3C)cc2)s1,-1.77
4,COc1ccc(NC2CCCN(C(=O)c3ccc(C)c(N4CCNC4=O)c3)C2)cc1 (stereo unspecified),2.82
5,Cc1c(CCC(=O)O)c(=O)oc2cc3occ(-c4ccc(F)cc4)c3cc12,8.3
6,CCCc1c(C(=O)N/N=C(/C)c2ccncc2)nnn1-c1nonc1N,5
7,CSc1nc(C)c(C(=O)Nc2ccccc2)c(-c2ccco2)c1C#N,53.6
8,O=C(NC1CCCCC1)n1c(=O)oc2ccc(Cl)cc21,2.99
9,Cc1ccn(CCC(=O)Nc2ccc3c(c2)OCO3)n1,0.23
10,COc1ccccc1-n1c(SCC(=O)Nc2ccc(NC(C)=O)cc2)nc2c([nH]c3ccccc32)c1=O,7.07
11,COc1ccc(-c2csc(N3CCN(Cc4ccc5c(c4)OCO5)CC3)n2)cc1,0.46
12,CC(C)CCn1c(=O)c(C(=O)NCc2ccc3c(c2)OCO3)c(O)c2ccccc21,3.69
13,CCc1ccc(CN2CCC(C(=O)Nc3cccc(-c4nnc(C)s4)c3)CC2)o1,2.81
14,COC(=O)c1ccccc1NC(=O)CCC(=O)N1CCSc2ccccc21,0.04
15,COC(=O)c1ccc(CN2CCCC(C(=O)Nc3ccc(-c4ccn[nH]4)cc3)C2)cc1 (stereo unspecified),5.14
16,Cc1c(NC(=O)COc2ccc(C(C)C)cc2)c(=O)n(-c2ccccc2)n1C,-1.3
17,CCOc1cccc2cc(C(=O)Nc3cc(C)on3)c(=O)oc12,3.23
18,Cc1ccc(C)c(NC(=O)CSc2nnc([C@@H](N)Cc3c[nH]c4ccccc34)o2)c1,-1.47
19,COc1ccc(/C=N/Nc2nc(-c3ccc(C)cc3)c(NC(C)=O)s2)cc1OC,38
20,CCOc1cc(/C=C2\N=C(SC(C)C(N)=O)N(c3ccc(OC(F)F)cc3)C2=O)ccc1O (stereo unspecified),98.1
21,Cc1cc(F)ccc1NCC(=O)Nc1ccc(Br)cc1C,29.6
22,O=C(Nc1nc2ccccc2n1CCN1CCCC1)C1CCCCC1,2.94

row,Structure (SMILES),inhibition [%]
1,Cc1ccc(S(=O)(=O)N(CC(=O)N2CCOCC2)c2ccc(C(C)C)cc2)cc1,-0.39
2,Cc1cccc(OCCC(=O)NCC(c2ccccc2)N(C)C)c1 (stereo unspecified),-0.47
3,CC(=O)Nc1scc(C)c1-c1nc2ccccc2s1,26
4,COc1cc2nc(N3CCN(C(=O)OCc4ccccc4)[C@H](C(=O)NC(C)(C)C)C3)nc(N)c2cc1OC,56.7
5,O=C(CN1CCN(c2cccc(Cl)c2)CC1)Nc1ccc(S(=O)(=O)N2CCOCC2)cc1,8.13
6,COc1ccc(NC(=O)CCl)cn1,55.6
7,CC(C)c1ccc(NC(=O)c2ccc3c(c2)C(=O)N(Cc2cccnc2)C3=O)cc1,-10.1
8,O=C(NCCN1CCN(C(=O)c2ccc([N+](=O)[O-])cc2)CC1)C(=O)Nc1ccc(F)cc1,-0.11
9,FC(F)(F)c1ccc2c(c1)ncn2C1CCN(Cc2nnnn2C2CCCCC2)CC1,59.8
10,O=S(=O)(NC(=NC1CCCCC1)c1ccccc1)c1ccc(F)cc1,5.49
11,Nc1ccnn1Cc1cccs1,2.53
12,CC(OC(=O)c1oc2ccccc2c1CSC1CCCCC1)C(=O)NC(N)=O (stereo unspecified),-14.8
13,CCN(C1CCCCC1)S(=O)(=O)c1ccc(C(=O)O)cc1,-3.71
14,Cc1c(C(=O)NC2CCC(C)CC2)oc2ccccc12 (stereo unspecified),4.74
15,Cn1c(=O)c2ccccc2n2c(CCl)nnc12,26.5
16,CCOc1ccc(S(=O)(=O)NCCC(=O)NCC2(N3CCCCC3)CCCCC2)cc1,-6.67
17,O=C(CC1C(=O)NCCN1Cc1ccccc1C(F)(F)F)NC1CCC1 (stereo unspecified),4.41
18,Cn1c(O)c(C2=c3ccccc3=NC2=O)[nH]c1=S,37
19,Cc1nn(CCc2nn[nH]n2)c2nc(-c3ccc(C4CCCCC4)cc3)cc(C(F)(F)F)c12,21.8
20,O=C1Nc2ccccc2Nc2ccc([N+](=O)[O-])cc21,2.63
21,O=S1(=O)CCO[C@H]2Cc3ccccc3[C@H]2N1Cc1ccc(Cl)cc1,24.6
22,C=CCn1c(SCC(=O)NCC2CCCO2)nc2scc(-c3ccc(OC)cc3)c2c1=O (stereo unspecified),-1.7

row,Structure (SMILES),inhibition [%]
1,COc1ccc(CNC(=O)c2csnn2)cc1,-4.73
2,C=CCNC(=O)/C(C#N)=C/c1c(N(Cc2ccccc2)Cc2ccccc2)nc2ccccn2c1=O,-5.11
3,Cc1ccc(C)c(CN2CCC(n3nccc3NC(=O)C3CCCC3)CC2)c1,6
4,COc1ccc(-c2csc(Nc3ccc(C)cn3)n2)cc1OC,35
5,O=C(COc1ccc(C(=S)N2CCCC2)cc1)Nc1ccccc1C(F)(F)F,-1.76
6,O=C(C1=C[C@@H](c2ccc(Br)cc2)C[C@@H](OCCCCO)O1)N1CCN(Cc2ccc3c(c2)OCO3)CC1,56.9
7,Cc1cc(-c2nsc(=O)o2)c(S(C)(=O)=O)s1,-11.3
8,O=C(NC(=S)NCc1ccco1)c1cccc(Cl)c1,9.28
9,CCc1ccc(-c2cc(C(F)(F)F)n3nc(C(=O)Nc4c(C)nn(Cc5ccccc5Cl)c4C)cc3n2)s1,2.17
10,CCN(CC)C(=O)Oc1ccc2c(c1)O/C(=C\c1ccco1)C2=O,8.49
11,CN(C)S(=O)(=O)c1ccc(C(=O)NCc2nnc(SCC(=O)N3CCCCCC3)o2)cc1,-3.87
12,CCCOc1ccc(N2CC(C(=O)Nc3ccccc3OC)CC2=O)cc1 (stereo unspecified),9.09
13,CCCc1nc2oc3c(OCC)ncnc3c2c2c1COC(C)(C)C2,12.9
14,Cc1cc(OCc2cc(C(=O)N3CCC(Oc4cccnc4)CC3)no2)cc(C)c1Cl,98.6
15,O=C(CN1CCN(c2ccccn2)CC1)N1c2ccccc2Sc2ccc(C(F)(F)F)cc21,6.43
16,COC(=O)c1ccc(/C=N/Nc2nc(-c3ccc(C)cc3)cs2)cc1,49.9
17,CCNC(=S)NNC(=O)c1ccoc1C,2.51
18,CCCOc1ccc(C2C(C(=O)c3ccc(C)o3)=C(O)C(=O)N2Cc2ccco2)cc1OCC (stereo unspecified),-3.52
